# Measured values as given in the supplement of paper PMC10986608.
# The list shows a part of the results. Repeats are few or missing, and single values can be far off.
# System: Candida albicans DPL-15
# Experiment: growth (OD600) after compound treatment (apparently relative to screen median) (relative growth (fraction; screen median 1.02)); DPL-15 is a caspofungin-resistant clinical isolate; higher = more fungal growth (less antifungal activity)
# Conditions: 25 µM; RPMI 1640; 48 h; 30 °C
row,SMILES,growth
1,Cc1cc(C)c2c(c1)N=C1CCCCC12Cc1occc(=O)c1OS(C)(=O)=O (configuration not stated),0.917
2,Cc1ccc(S(=O)(=O)Oc2c(C[C@@]3(C)C(c4ccccc4)=Nc4ccccc43)occc2=O)cc1,0.925
3,CC(=O)OC[C@H]1O[C@H](C#Cc2cccc(C)c2)C=C[C@H]1OC(C)=O,0.976
4,C=CCC1=C(OC)[C@@]2(CC=C)C[C@H](Cc3ccccc3)[C@@](C(=O)c3ccccc3)(C1=O)C2=O,0.951
5,COCCN1C(=O)[C@H]2C[C@@]13O[C@H](C1CCCCC1)N=C3C[C@@H]1c3ccccc3C[C@]21C,0.96
6,COc1ccc(N2C(=O)c3[nH]nc(-c4ccc5c(c4)CCC5)c3C2c2ccc(F)cc2)cc1 (configuration not stated),0.941
7,C#CCN(C)C(=O)c1nnc(C(=O)OC)c2c1c1ccccc1n2S(=O)(=O)c1ccc(C)cc1,1.03
8,COC(=O)C1=C(C)N(C)C(NCCN2CCOCC2)=NC1c1ccc(Cl)cc1 (configuration not stated),1.11
9,COc1ccc(N2C(=O)C3=C(C(C(C)C)=NCCN3)C2c2ccc(Br)cc2)cc1 (configuration not stated),0.901
10,CC(C)C1=NCCN(C)C2=C1C(c1ccc3c(c1)OCO3)NC2=O (configuration not stated),0.918
11,CS(=O)(=O)Oc1c(C[C@@]23COc4ccccc4C2=Nc2ccccc23)occc1=O,1.08
12,COc1ccc(OC)c(C(=O)c2c(O)cc(O)cc2OC)c1Br,1.09
13,COC(=O)N[C@@H]1[C@@H](C)[C@H](OC)[C@]23C=CC=C[C@H]2[C@]13CCN1CCCCC1,1.04
14,O=C1Nc2cc(F)ccc2C1(c1cc2c(cc1O)OCO2)c1cc2c(cc1O)OCO2,1.16
15,COc1cc(O)cc2c1[C@]1(O)[C@H](O)[C@H](C(=O)N(C)OC)[C@@H](c3ccccc3)[C@]1(c1ccc(Br)cc1)O2,0.87
16,COc1ccc(O)c(C(=O)c2c(O)cc(C)cc2O)c1C,1.03
17,CCCCS(=O)(=O)N1CCCc2nc(-c3ccc(OC)cc3)ccc21,1.01
18,CCNC(=O)OC[C@H]1O[C@H](C#Cc2ccc(C(C)(C)C)cc2)C=C[C@H]1OC(C)=O,1.06
19,CC1=C[C@@H](COc2cccc(F)c2)O[C@@]2(C1)C(=O)N(C)c1ccccc12,0.946
20,CCO[C@H]1CCN(C(=O)c2c(O)cc(O)cc2Nc2ccnn2C)C1,1.04
21,CC1(C)CNC(=O)C(O)CNC(=O)c2cccc(c2)-c2cc(n[nH]2)C1 (configuration not stated),1.14

row,SMILES,growth
1,C=CCCCOS(=O)(=O)NC(C)(C)C,1.06
2,COCCN1C(=S)NC(c2ccccc2)C(C(=O)OC)=C1C (configuration not stated),1.28
3,COc1cc(OC)cc([C@@H]2/C(=C\c3cc(C(C)(C)C)c(O)c(C(C)(C)C)c3)c3cc(OC)cc(OC)c3[C@H]2c2cc(C(C)(C)C)c(O)c(C(C)(C)C)c2)c1,1.21
4,O=c1c(OCc2ccoc2)c(-c2ccccc2)oc2ccccc12,0.951
5,CCOC(=O)C1CCCN(CCc2ccccc2)C1 (configuration not stated),0.986
6,CC(C)[C@@H]1N=C2C[C@H](c3ccccc3)[C@@H](C)[C@@H]3C[C@@]2(O1)N(Cc1cccs1)C3=O,0.906
7,C=CCN1C(=O)C2=C(C(C)=NCCN2)C1c1ccc(F)cc1 (configuration not stated),0.956
8,COC(=O)C1=C(C)N(Cc2ccccc2)C(=S)NC1c1ccccc1 (configuration not stated),0.918
9,CC(C)Cc1n[nH]c2c1C(c1cccc(Cl)c1)N(c1ccc(C(C)(C)C)cc1)C2=O (configuration not stated),1.09
10,CCc1ccccc1-n1nc(CC(C)C)c2c1C(=O)NC2c1ccccc1 (configuration not stated),0.943
11,CC(C)C1=NCCNC2=C1C(c1cccc(C(F)(F)F)c1)N(Cc1ccccc1)C2=O (configuration not stated),1.07
12,Cc1cccc(CO[C@H]2CC=C(c3ccccc3)O[C@@H]2CO)c1,0.846
13,COC(=O)C/C=C/[C@H](C)[C@@H](NC(=O)[C@H](Cc1ccc(O)cc1)NC(=O)OC(C)(C)C)c1ccccc1,1.12
14,COc1cc(O)c(C(=O)[C@@H]2CC=C(CCC=C(C)C)C[C@H]2c2ccccc2)c(O)c1,0.979
15,COc1ccc(-c2ccc3c(n2)CCCN3S(=O)(=O)c2ccc(F)cc2)cc1,0.875
16,C=CCNC1=NC(c2cccc(Cl)c2)C(C(=O)OC)=C(C)N1C (configuration not stated),0.873
17,CC(=O)C1=C2C=CCCN2C(=O)NC1c1ccccc1F (configuration not stated),1.02
18,Cn1cc(Nc2cc(O)cc(O)c2C(=O)N2CC[C@@H](F)C2)cn1,1.06
19,COc1cc(F)c(C2NC(=O)N3CCC=CC3=C2C(C)=O)cc1F (configuration not stated),1.01
20,COc1ccc(S(=O)(=O)N[C@@H]2c3cc(OC)ccc3[C@H](c3ccccc3)[C@H]2C)cc1,0.988
21,C[C@H]1/C=C/CC(=O)OC[C@@H]2OC(C)(C)O[C@@H]2C(=O)N[C@H]1c1ccccc1,1.09

row,SMILES,growth
1,CO[C@@H]1CCN(C(=O)c2c(O)cc(O)cc2Nc2cc(C)nn2C)C1,1.06
2,CC(C)c1nn(-c2ccc(OC(F)(F)F)cc2)c2c1C(c1ccc3c(c1)OCO3)NC2=O (configuration not stated),0.927
3,C=CC[C@]12C[C@@]3(O[C@H](C4CCNCC4)N=C3C[C@H](c3ccc(OC)cc3)[C@H]1C)N(Cc1ccccc1)C2=O,0.785
4,COc1cccc([C@@H](NC(=O)C(F)(F)F)[C@@H]2CCCC=C2c2ccccc2)c1,1.01
5,COC(=O)C/C=C/[C@H](C)[C@@H](NC(=O)[C@@H](Cc1c[nH]c2ccccc12)NC(=O)OC(C)(C)C)c1ccccc1,0.905
6,COC(=O)C1=C(C)N(CCc2cccs2)C(NCc2cccc(C(F)(F)F)c2)=NC1c1ccccc1 (configuration not stated),1.14
7,COC(=O)C1=C(C)N(Cc2cccc(Cl)c2)C(=S)NC1c1cccc(Cl)c1 (configuration not stated),0.881
8,C=CCN1C(=O)C2=C(C(C(C)C)=NCCN2)C1c1ccc(F)cc1 (configuration not stated),0.986
9,CO[C@@H]1[C@H](O)CC[C@]2(O)CN(c3c(C)noc3C)[C@](C)([C@H](O)CC=C(C)C)[C@@H]12,1.09
10,Cc1cc(O)c2c3c4c(cc(O)c13)O[C@@]1(c3ccc([N+](=O)[O-])cc3)O[C@H](C)C[C@H]1[C@H]4OC2=O,0.98
11,CC(C)Cc1n[nH]c2c1C(c1ccc(F)cc1)N(c1ccc(C(=O)O)cc1)C2=O (configuration not stated),0.977
12,CC1=NCCNC2=C1C(c1ccc(C)cc1)N(Cc1ccccc1)C2=O (configuration not stated),0.993
13,CC(=O)C1=C2C=CCCN2C(=O)NC1c1ccc(Cl)cc1 (configuration not stated),0.915
14,CC1=C(C#N)C(c2ccccc2)NC(=O)N1 (configuration not stated),1.03
15,COc1c(F)cccc1C1NC(=O)N2CCC=CC2=C1C(C)=O (configuration not stated),0.974
16,CC(C)Cc1n[nH]c2c1C(c1ccc(F)cc1)N(c1ccccn1)C2=O (configuration not stated),1.06
17,CC(=O)OC[C@H]1O[C@H](C#Cc2ccccc2C(F)(F)F)C=C[C@@H]1OC(C)=O,0.805
18,CC(=O)C1=C(C)N(Cc2ccccc2)C(=S)NC1c1ccccc1Cl (configuration not stated),0.941
19,C=CCN1C(=O)C2=C(C(c3ccccc3)=NCCN2C)C1c1ccc2c(c1)OCO2 (configuration not stated),1.02
20,COC(=O)c1[nH]c2ccc(OC)cc2c1[C@]12CCN(C(=O)Cc3cccc(F)c3F)[C@H]1Nc1ccccc12,1.15
21,O=S(=O)(NCC(F)(F)F)N(Cc1ccccc1)Cc1ccccc1,1.15

row,SMILES,growth
1,CN1CCN=C(c2ccccc2)C2=C1C(=O)NC2c1ccc2c(c1)OCO2 (configuration not stated),0.888
2,CS(=O)(=O)Oc1c(C[C@@]23CCCCC2=Nc2ccc(Cl)cc23)occc1=O,1.08
3,COc1cc2c(cc1OC)CN(CCc1ccccc1)CC2,1.08
4,COC(=O)C/C=C/[C@H](C)[C@@H](NC(=O)[C@H](COCc1ccccc1)NC(=O)OC(C)(C)C)c1ccccc1,0.966
5,CCCCCCCc1cc(Cl)cc(Cl)n1,1.05
6,COC(=O)NC(c1ccc2c(c1)OCO2)C(C(=O)OC)C(=O)OC (configuration not stated),1.02
7,COC(=O)Cc1nnn2c1[C@@H](C)[C@@H](c1ccccc1Br)O[C@@H](C)C2,0.969
8,CO[C@@]1(c2ccc(Cl)cc2)Oc2ccc(Cl)cc2C(=O)[C@@]12OCC=C2C,0.741
9,CO[C@@H]1[C@H](O)CC[C@]2(O)CN(CCCN3CCCC3=O)[C@@H](CC=C(C)C)[C@](C)(O)[C@@H]12,1.1
10,COC(=O)c1cccc2cnnn12,1.28
11,CC(C)C(=O)Cc1cc(O)cc(O)c1C(=O)N1Cc2ccccc2C1,0.985
12,COc1ccc(N2C(=O)c3[nH]nc(CC(C)C)c3C2c2ccccc2Cl)cn1 (configuration not stated),0.941
13,COC(=O)C1=C(C)N(Cc2cccc(C(F)(F)F)c2)C(NCC2CCCCC2)=NC1c1ccc(Cl)cc1 (configuration not stated),0.883
14,CS(=O)(=O)Oc1c(CC23COCCC2=Nc2ccccc23)occc1=O (configuration not stated),1.25
15,O=C1NC(c2ccccc2)C2=C1NCCN=C2c1ccccc1 (configuration not stated),1.07
16,C[C@@H]1/C=C\CC(=O)OCCCCCC(=O)N[C@@H]1c1cccc(Br)c1,1.11
17,COC(=O)C/C=C/[C@H](C)[C@@H](NC(=O)[C@@H](Cc1ccccc1)NC(=O)OC(C)(C)C)c1cccc(Br)c1,1.09
18,CC(C)Cc1n[nH]c2c1C(c1cccc(C(F)(F)F)c1)N(c1ccc(C(C)(C)C)cc1)C2=O (configuration not stated),0.936
19,Nc1ccccc1C(=O)/C=C/c1ccc2c(c1)OCO2,0.674
